# From patent publication US11618753B2 (priority 2018, dated 2023)
# System: MLKL phosphorylation, HT29-L23 human colorectal adenocarcinoma cells
# Test: cells
# Details: read-out: pMLKL HCS Cell Assay (IC50, uM)
row,SMILES,IC50 [µM]
1,"Cc1cc(C(=O)N2C[C@H](F)[C@H](NC(=O)c3cc(-c4cc(C(F)(F)F)c5c(N)ncnn45)ccc3C)C2)ccn1 [Example 1021, 5-[4-amino-5-(trifluoromethyl)pyrrolo[2,1-f][1,2,4]triazin-7-yl]-N-[(3R,4S)-4-fluoro-1-(2-methylpyridine-4-carbonyl)pyrrolidin-3-yl]-2-methylbenzamide]",0.012
2,"Cc1ccc(-c2cc(C(F)(F)F)c3c(N)ncnn23)cc1C(=O)N[C@@H]1CN(C(=O)c2ccc(F)cc2F)C[C@@H]1F [Example 1022, 5-[4-amino-5-(trifluoromethyl)pyrrolo[2,1-f][1,2,4]triazin-7-yl]-N-[(3R,4S)-1-(2,4-difluorobenzoyl)-4-fluoropyrrolidin-3-yl]-2-methylbenzamide]",0.0046
3,"Cc1ccnc(C(=O)N2C[C@H](F)[C@H](NC(=O)c3cc(-c4cc(C(F)(F)F)c5c(N)ncnn45)ccc3C)C2)c1 [Example 1023, 5-[4-amino-5-(trifluoromethyl)pyrrolo[2,1-f][1,2,4]triazin-7-yl]-N-[(3R,4S)-4-fluoro-1-(4-methylpyridine-2-carbonyl)pyrrolidin-3-yl]-2-methylbenzamide]",0.015
4,"Cc1ccc(-c2cc(C(F)(F)F)c3c(N)ncnn23)cc1C(=O)N[C@@H]1CN(C(=O)c2c(F)cc(F)cc2F)C[C@@H]1F [Example 1024, 5-[4-amino-5-(trifluoromethyl)pyrrolo[2,1-f][1,2,4]triazin-7-yl]-N-[(3R,4S)-4-fluoro-1-(2,4,6-trifluorobenzoyl)pyrrolidin-3-yl]-2-methylbenzamide]",0.00075
5,"Cc1ccc(-c2cc(C(F)(F)F)c3c(N)ncnn23)cc1C(=O)N[C@@H]1CN(C(=O)c2cc(F)c(F)cc2Cl)C[C@@H]1F [Example 1025, 5-[4-amino-5-(trifluoromethyl)pyrrolo[2,1-f][1,2,4]triazin-7-yl]-N-[(3R,4S)-1-(2-chloro-4,5-difluorobenzoyl)-4-fluoropyrrolidin-3-yl]-2-methylbenzamide]",0.0029
6,"Cc1ccc(-c2cc(C(F)(F)F)c3c(N)ncnn23)cc1C(=O)N[C@@H]1CN(C(=O)c2cc(F)c(F)cc2F)C[C@@H]1F [Example 1026, 5-[4-amino-5-(trifluoromethyl)pyrrolo[2,1-f][1,2,4]triazin-7-yl]-N-[(3R,4S)-4-fluoro-1-(2,4,5-trifluorobenzoyl)pyrrolidin-3-yl]-2-methylbenzamide]",0.00052
7,"COc1ncccc1C(=O)N1C[C@H](F)[C@H](NC(=O)c2cc(-c3cc(C(F)(F)F)c4c(N)ncnn34)ccc2C)C1 [Example 1027, 5-[4-amino-5-(trifluoromethyl)pyrrolo[2,1-f][1,2,4]triazin-7-yl]-N-[(3R,4S)-4-fluoro-1-(2-methoxypyridine-3-carbonyl)pyrrolidin-3-yl]-2-methylbenzamide]",0.168
8,"Cc1ccc(-c2cc(C(F)(F)F)c3c(N)ncnn23)cc1C(=O)N[C@@H]1CN(C(=O)c2cn(C)cn2)C[C@@H]1F [Example 1028, 5-[4-amino-5-(trifluoromethyl)pyrrolo[2,1-f][1,2,4]triazin-7-yl]-N-[(3R,4S)-4-fluoro-1-(1-methyl-1H-imidazole-4-carbonyl)pyrrolidin-3-yl]-2-methylbenzamide]",0.254
9,"Cc1ccc(-c2cc(C(F)(F)F)c3c(N)ncnn23)cc1C(=O)N[C@@H]1CN(C(=O)c2cc(F)cc(F)c2)C[C@@H]1F [Example 1029, 5-[4-amino-5-(trifluoromethyl)pyrrolo[2,1-f][1,2,4]triazin-7-yl]-N-[(3R,4S)-1-(3,5-difluorobenzoyl)-4-fluoropyrrolidin-3-yl]-2-methylbenzamide]",0.0013
10,"Cc1ccc(-c2cc(C(F)(F)F)c3c(N)ncnn23)cc1C(=O)N[C@@H]1CN(C(=O)c2cn(C3CC3)nn2)C[C@@H]1F [Example 1030, 5-[4-amino-5-(trifluoromethyl)pyrrolo[2,1-f][1,2,4]triazin-7-yl]-N-[(3R,4S)-1-(1-cyclopropyl-1H-1,2,3-triazole-4-carbonyl)-4-fluoropyrrolidin-3-yl]-2-methylbenzamide]",0.367
11,"Cc1ccc(-c2cc(C(F)(F)F)c3c(N)ncnn23)cc1C(=O)N[C@@H]1CN(C(=O)c2ccc(C(F)(F)F)nc2)C[C@@H]1F [Example 1031, 5-[4-amino-5-(trifluoromethyl)pyrrolo[2,1-f][1,2,4]triazin-7-yl]-N-[(3R,4S)-4-fluoro-1-[6-(trifluoromethyl)pyridine-3-carbonyl]pyrrolidin-3-yl]-2-methylbenzamide]",0.162
12,"Cc1cc(C(=O)N2C[C@H](F)[C@H](NC(=O)c3cc(-c4cc(C(F)(F)F)c5c(N)ncnn45)ccc3C)C2)n(C)n1 [Example 1033, 5-[4-amino-5-(trifluoromethyl)pyrrolo[2,1-f][1,2,4]triazin-7-yl]-N-[(3R,4S)-1-(1,3-dimethyl-1H-pyrazole-5-carbonyl)-4-fluoropyrrolidin-3-yl]-2-methylbenzamide]",0.097
13,"Cc1ccc(-c2cc(C(F)(F)F)c3c(N)ncnn23)cc1C(=O)N[C@@H]1CN(C(=O)c2cccc(F)c2Cl)C[C@@H]1F [Example 1034, 5-[4-amino-5-(trifluoromethyl)pyrrolo[2,1-f][1,2,4]triazin-7-yl]-N-[(3R,4S)-1-(2-chloro-3-fluorobenzoyl)-4-fluoropyrrolidin-3-yl]-2-methylbenzamide]",0.0011
14,"Cc1ccc(-c2cc(C(F)(F)F)c3c(N)ncnn23)cc1C(=O)N[C@@H]1CN(C(=O)c2cc(C#N)ccc2F)C[C@@H]1F [Example 1035, 5-[4-amino-5-(trifluoromethyl)pyrrolo[2,1-f][1,2,4]triazin-7-yl]-N-[(3R,4S)-1-(5-cyano-2-fluorobenzoyl)-4-fluoropyrrolidin-3-yl]-2-methylbenzamide]",0.0032
15,"Cc1ccc(-c2cc(C(F)(F)F)c3c(N)ncnn23)cc1C(=O)N[C@@H]1CN(C(=O)c2ccccc2S(C)(=O)=O)C[C@@H]1F [Example 1036, 5-[4-amino-5-(trifluoromethyl)pyrrolo[2,1-f][1,2,4]triazin-7-yl]-N-[(3R,4S)-4-fluoro-1-(2-methanesulfonylbenzoyl)pyrrolidin-3-yl]-2-methylbenzamide]",0.119
16,"Cc1ccc(-c2cc(C(F)(F)F)c3c(N)ncnn23)cc1C(=O)N[C@@H]1CN(C(=O)c2cc(F)ccn2)C[C@@H]1F [Example 1037, 5-[4-amino-5-(trifluoromethyl)pyrrolo[2,1-f][1,2,4]triazin-7-yl]-N-[(3R,4S)-4-fluoro-1-(4-fluoropyridine-2-carbonyl)pyrrolidin-3-yl]-2-methylbenzamide]",0.0035
17,"Cc1ccc(-c2cc(C(F)(F)F)c3c(N)ncnn23)cc1C(=O)N[C@@H]1CN(C(=O)c2ccncc2Cl)C[C@@H]1F [Example 1038, 5-[4-amino-5-(trifluoromethyl)pyrrolo[2,1-f][1,2,4]triazin-7-yl]-N-[(3R,4S)-1-(3-chloropyridine-4-carbonyl)-4-fluoropyrrolidin-3-yl]-2-methylbenzamide]",0.0062
18,"Cc1ccc(-c2cc(C(F)(F)F)c3c(N)ncnn23)cc1C(=O)N[C@@H]1CN(C(=O)c2cccc(F)c2F)C[C@@H]1F [Example 1039, 5-[4-amino-5-(trifluoromethyl)pyrrolo[2,1-f][1,2,4]triazin-7-yl]-N-[(3R,4S)-1-(2,3-difluorobenzoyl)-4-fluoropyrrolidin-3-yl]-2-methylbenzamide]",0.00078
19,"Cc1nc(C(=O)N2C[C@H](F)[C@H](NC(=O)c3cc(-c4cc(C(F)(F)F)c5c(N)ncnn45)ccc3C)C2)co1 [Example 1040, 5-[4-amino-5-(trifluoromethyl)pyrrolo[2,1-f][1,2,4]triazin-7-yl]-N-[(3R,4S)-4-fluoro-1-(2-methyl-1,3-oxazole-4-carbonyl)pyrrolidin-3-yl]-2-methylbenzamide]",0.058
20,"Cc1ccc(-c2cc(C(F)(F)F)c3c(N)ncnn23)cc1C(=O)N[C@@H]1CN(C(=O)c2c(F)cccc2Cl)C[C@@H]1F [Example 1041, 5-[4-amino-5-(trifluoromethyl)pyrrolo[2,1-f][1,2,4]triazin-7-yl]-N-[(3R,4S)-1-(2-chloro-6-fluorobenzoyl)-4-fluoropyrrolidin-3-yl]-2-methylbenzamide]",0.0015
21,"Cc1cc(C(=O)N2C[C@H](F)[C@H](NC(=O)c3cc(-c4cc(C(F)(F)F)c5c(N)ncnn45)ccc3C)C2)c(F)cn1 [Example 1042, 5-[4-amino-5-(trifluoromethyl)pyrrolo[2,1-f][1,2,4]triazin-7-yl]-N-[(3R,4S)-4-fluoro-1-(5-fluoro-2-methylpyridine-4-carbonyl)pyrrolidin-3-yl]-2-methylbenzamide]",0.0029
22,"Cc1ccc(-c2cc(C(F)(F)F)c3c(N)ncnn23)cc1C(=O)N[C@@H]1CN(C(=O)c2ccc(F)cc2Cl)C[C@@H]1F [Example 1043, 5-[4-amino-5-(trifluoromethyl)pyrrolo[2,1-f][1,2,4]triazin-7-yl]-N-[(3R,4S)-1-(2-chloro-4-fluorobenzoyl)-4-fluoropyrrolidin-3-yl]-2-methylbenzamide]",0.0023
23,"Cc1ccc(-c2cc(C(F)(F)F)c3c(N)ncnn23)cc1C(=O)N[C@@H]1CN(C(=O)CC2CCCC2)C[C@@H]1F [Example 1044, 5-[4-amino-5-(trifluoromethyl)pyrrolo[2,1-f][1,2,4]triazin-7-yl]-N-[(3R,4S)-1-(2-cyclopentylacetyl)-4-fluoropyrrolidin-3-yl]-2-methylbenzamide]",0.0014
24,"Cc1ccc(-c2cc(C(F)(F)F)c3c(N)ncnn23)cc1C(=O)N[C@@H]1CN(C(=O)CC2CC(F)(F)C2)C[C@@H]1F [Example 1045, 5-[4-amino-5-(trifluoromethyl)pyrrolo[2,1-f][1,2,4]triazin-7-yl]-N-[(3R,4S)-1-[2-(3,3-difluorocyclobutyl)acetyl]-4-fluoropyrrolidin-3-yl]-2-methylbenzamide]",0.0042
25,"Nc1ncnn2c(-c3ccc(OC(F)(F)F)c(C(=O)N[C@@H]4CN(C(=O)c5ccccc5F)C[C@@H]4F)c3)cc(C(F)(F)F)c12 [Example 1046, 5-[4-amino-5-(trifluoromethyl)pyrrolo[2,1-f][1,2,4]triazin-7-yl]-N-[(3R,4S)-4-fluoro-1-(2-fluorobenzoyl)pyrrolidin-3-yl]-2-(trifluoromethoxy)benzamide]",0.223
